Experimental data: the supplement of paper PMC10126150
Values marked as one replicate rest on one cluster of the flow cell; about a third of the high ones do not repeat.

system: ATP; test: switch fluorescence ratio, 500 uM ATP over buffer (Cy3 cluster intensity, sum of 5 cycles each) (fold (ratio)); higher = stronger signal-on switching upon ATP binding; sequences stand for … in TCGTCGGCAGCGTCAGATGTGTATAAGAGACAGTTTTTTTTTTTTTTTTTTTTTTTTT…TC; settings: aptamer strand: ATP DNA aptamer (quencher-CACCTGGGGGAGTATTGCGGAGGAAGG + anchor), 100 nM annealed; ATP concentration: 500 uM; one replicate
In short: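 Per cluster, summed Cy3 intensity from the target cycles was divided by that from the buffer cycles to give the fluorescence ratio, then averaged per switch-domain sequence. Clusters outside 100-1000 RFU were excluded. The Cy3-labelled switching-strand clusters, on a modified Illumina MiSeq flow-cell, were annealed to 100 nM quencher-labelled ATP aptamer and imaged in selection buffer, then after 15 min with 500 uM ATP at 22 °C, for five cycles with NaOH stripping and re-annealing between them.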
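Also: ATP exposure 15 min at 22 °C before imaging.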

| Sequence | switch fluorescence ratio |
| --- | --- |
| ACCAAGCATA | 1.34 |
| ACCAAGGCAG | 0.994 |
| ACCAAGGGCA | 1.04 |
| ACCAAGTGCT | 1.09 |
| ACCAAGTTTG | 0.993 |
| ACCAATAACC | 1.06 |
| ACCAATGCGG | 1.03 |
| ACCAATGCGT | 1.08 |
| ACCAATTTCC | 1.15 |
| ACCACAAGTG | 1.23 |
| ACCACCCTAA | 1.1 |
| ACCACGGAGT | 1.02 |
| ACCAGAGTGG | 1.06 |
| ACCAGCTGCG | 1.06 |
| ACCAGGTACG | 1.12 |
| ACCATACTG | 1.44 |
| ACCATAGGTT | 0.99 |
| ACCATATCTT | 1.07 |
| ACCATTATTG | 0.999 |
| ACCCAAAATA | 0.986 |
| ACCCACCCAC | 1.52 |
| ACCCAGCGGT | 1.03 |
| ACCCATGCAG | 1.02 |
| ACCCCATGGT | 1.39 |
| ACCCCATTGT | 1.11 |
| ACCCCCAGCT | 2.15 |

| Sequence | switch fluorescence ratio |
| --- | --- |
| ACCCCGTGGG | 0.998 |
| ACCCGAGTG | 1.23 |
| ACCCGATAAA | 1.03 |
| ACCCGCACGG | 1.49 |
| ACCCGGCCCT | 1.01 |
| ACCCGGGTAA | 1.68 |
| ACCCTAGTCG | 1.04 |
| ACCCTCCGAA | 5.56 |
| ACCCTCTGCT | 1.27 |
| ACCCTGGATC | 1.06 |
| ACCCTTAGAA | 0.998 |
| ACCCTTTTGA | 1.04 |
| ACCGACGAC | 3.59 |
| ACCGAGCTC | 1.24 |
| ACCGATTGTG | 1.02 |
| ACCGCGCGT | 1.02 |
| ACCGCTAAAG | 1.34 |
| ACCGCTCTGA | 1.07 |
| ACCGCTGCGT | 1.05 |
| ACCGGAGTC | 1.23 |
| ACCGGCAAGT | 1.13 |
| ACCGGGAGGG | 1.05 |
| ACCGGGGAAC | 1.06 |
| ACCGGGGGGC | 1.3 |
| ACCGGGTAAT | 0.95 |
| ACCGGTCCGC | 4.65 |

| Sequence | switch fluorescence ratio |
| --- | --- |
| ACCGTCACCG | 1.24 |
| ACCGTCAGCC | 1.11 |
| ACCGTCCCAT | 0.991 |
| ACCGTGGCG | 1.05 |
| ACCGTGGTGT | 1.06 |
| ACCGTTGGGC | 0.946 |
| ACCTACACTT | 1.24 |
| ACCTACGGGA | 1.39 |
| ACCTAGGGGC | 1.13 |
| ACCTATATAC | 1.58 |
| ACCTATATGC | 1.31 |
| ACCTATTAAA | 0.965 |
| ACCTATTCCG | 1.2 |
| ACCTCCGAAG | 5.99 |
| ACCTCGTAT | 0.96 |
| ACCTCTCAGT | 1.04 |
| ACCTCTGTGC | 1.2 |
| ACCTCTGTGT | 1.03 |
| ACCTGAACGT | 0.969 |
| ACCTGAAGTT | 1.05 |
| ACCTGAGTA | 1.05 |
| ACCTGATGC | 1.12 |
| ACCTGATTGT | 1.02 |
| ACCTGCTGGA | 1.01 |
| ACCTGGAGTG | 1.08 |
| ACCTGGGTGC | 2.28 |

| Sequence | switch fluorescence ratio |
| --- | --- |
| ACCTGTCCCA | 1.02 |
| ACCTTAAAAG | 1 |
| ACCTTAGATT | 1.01 |
| ACCTTAGGGC | 0.989 |
| ACCTTTATTG | 1.02 |
| ACCTTTTGAG | 1.01 |
| ACCTTTTGCG | 1.03 |
| ACGAAAATAA | 1.03 |
| ACGAAAGCCA | 1.07 |
| ACGAAATCAG | 1.04 |
| ACGAACATAC | 2.82 |
| ACGAACCCCC | 1.15 |
| ACGAACTCCA | 1.31 |
| ACGAAGCTGG | 1.48 |
| ACGAAGTAAG | 0.949 |
| ACGAATATGC | 1.28 |
| ACGAATTGCG | 1.02 |
| ACGACGGACA | 1.62 |
| ACGAGAGGTT | 1.03 |
| ACGAGAGTTT | 1 |
| ACGAGATAAG | 1.04 |
| ACGAGCTCG | 1.01 |
| ACGAGGTTCG | 0.984 |
| ACGAGTCAGA | 0.998 |
| ACGAGTCAGG | 1.33 |
| ACGATAATAG | 1.24 |

| Sequence | switch fluorescence ratio |
| --- | --- |
| ACGATATGTA | 1.04 |
| ACGATCTGTA | 1 |
| ACGATGGGGT | 1.03 |
| ACGATGGTGC | 1.21 |
| ACGATGTTG | 1.04 |
| ACGATTGAGG | 0.992 |
| ACGATTTGGC | 1.01 |
| ACGCAACCCC | 3.14 |
| ACGCACGGGG | 1.45 |
| ACGCATAATA | 1.37 |
| ACGCATACAA | 1.82 |
| ACGCATGACC | 2.13 |
| ACGCCCGTAC | 1.7 |
| ACGCCGACTG | 1.21 |
| ACGCCTACTG | 1.38 |
| ACGCCTGGCG | 0.989 |
| ACGCGCGCCG | 1 |
| ACGCGGTATA | 1.02 |
| ACGCGGTGTG | 0.967 |
| ACGCGTCACC | 0.956 |
| ACGCTATCCG | 1.01 |
| ACGCTCGTGT | 1.01 |
| ACGCTGACAG | 1.04 |
| ACGCTGATCG | 0.973 |
| ACGCTTGACC | 1.07 |
| ACGCTTGTTG | 1.02 |

| Sequence | switch fluorescence ratio |
| --- | --- |
| ACGGAAATA | 1.01 |
| ACGGAACCAA | 1.19 |
| ACGGAAGCTT | 1.08 |
| ACGGACCAGT | 1.29 |
| ACGGACCGGG | 1.17 |
| ACGGACTTAG | 1.13 |
| ACGGAGACCA | 1.09 |
| ACGGAGGCAC | 1.02 |
| ACGGATAGCA | 1.02 |
| ACGGATTATA | 1.01 |
| ACGGATTCTG | 0.919 |
| ACGGCACAGT | 1.39 |
| ACGGCACGG | 1.48 |
| ACGGCGAACG | 0.988 |
| ACGGCGCAGT | 1.25 |
| ACGGCGCGGG | 1.28 |
| ACGGCTAGGT | 1.06 |
| ACGGGAACG | 1.05 |
| ACGGGAGGCA | 1.02 |
| ACGGGAGTA | 1.04 |
| ACGGGCATAC | 6.23 |
| ACGGGCCGTC | 0.985 |
| ACGGGCGTTT | 0.998 |
| ACGGGCTCC | 1.04 |
| ACGGGGAGGA | 1.04 |
| ACGGGGATAG | 1.07 |

| Sequence | switch fluorescence ratio |
| --- | --- |
| ACGGGGATTA | 1.02 |
| ACGGGGCCGA | 1 |
| ACGGGGTCTG | 0.987 |
| ACGGTAGATG | 1.06 |
| ACGGTCAACG | 0.963 |
| ACGGTGAATT | 1.03 |
| ACGGTGGTAT | 0.989 |
| ACGGTGTGTC | 1.01 |
| ACGTAAGTGG | 1.08 |
| ACGTAGGAGT | 1.07 |
| ACGTAGGGAG | 1.07 |
| ACGTAGGGCC | 1 |
| ACGTATCCAG | 0.978 |
| ACGTCAGGGC | 1.09 |
| ACGTCATCTG | 1.04 |
| ACGTCCATGT | 1 |
| ACGTCCCGCT | 1.05 |
| ACGTCCGATT | 1.06 |
| ACGTCCGTC | 1.08 |
| ACGTCCGTTG | 0.993 |
| ACGTCGAGA | 1.01 |
| ACGTCGATTG | 0.995 |
| ACGTCGCGCG | 0.993 |
| ACGTCGCGG | 0.952 |
| ACGTCGGTGA | 0.987 |
| ACGTCTCAGC | 1.01 |

| Sequence | switch fluorescence ratio |
| --- | --- |
| ACGTCTCCTG | 0.998 |
| ACGTCTCGGA | 0.959 |
| ACGTCTGT | 0.964 |
| ACGTCTGTAT | 1.03 |
| ACGTCTTTCC | 1.12 |
| ACGTGAGCCC | 1.06 |
| ACGTGCACTA | 1.06 |
| ACGTGCCTGT | 0.986 |
| ACGTGGCTCA | 1 |
| ACGTGGG | 1.03 |
| ACGTGTACAC | 1.05 |
| ACGTGTGAGG | 1.03 |
| ACGTGTGCCT | 1.04 |
| ACGTGTTAGG | 1.05 |
| ACGTTATCCC | 1.13 |
| ACGTTCCGGG | 1.29 |
| ACGTTCTCTG | 1.02 |
| ACGTTCTTTT | 0.972 |
| ACGTTTAGTT | 0.988 |
